Reference: PubChem BioAssay AID1347417 (National Center for Advancing Translational Sciences (NCATS), 2020)
Among all 120,000 compounds or so, about 5,300 (4.4%) were called active. The inconclusive results got no clear call from the source; some entries with a clear call stand among them for comparison. Calls follow the shape of the dose curve; as a rule, active = well fitted inhibition curve with a large enough effect; inconclusive = small, poorly fitted or top-dose-only effect; inactive = no such curve, though single readings can be large or run the other way. Where the call is inconclusive, the potency comes from a doubtful curve fit.

assay: qHTS Primary assay for Inhibitors of Plasmodium falciparum Dd2 growth in vitro; also: nearly all actives have a fitted effect of over 65% in size; conditions: P. falciparum Dd2 growth, SYBR Green, 72 h; series mostly up to 28.9 µM
How it was run: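 Readout: SYBR Green fluorescence, 485 nm excitation, 535 nm emission, after ~16 h lysis at 37C. Before that, Dd2-infected red cells (2.5% hematocrit) grew 72 h with compound, 29 uM top final concentration.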
Potency is read from the fitted curve at half-maximal effect; tags tell the direction and shape of the fitted curve.

SMILES	Potency
O=C(c1sccc1Cl)N1CCn2nc(C(O)c3ccccc3)cc2C1 (stereo not given)	inconclusive: 10 µM [inhibitor, partial curve, poor fit]
COC(=O)c1ccccc1NC(=O)Cn1nnc(-c2ccc(OC)cc2)n1	inactive
COc1cccc(NC(=O)N[C@H]2CCN(C(=O)CSC)[C@@H]2C(=O)N[C@H](Cc2ccccc2)C(N)=O)c1	inactive
O=C1N(CCCCOc2ccccc2)c2ccccc2NC12CCNCC2	active: 7.94 µM
CN(Cc1cccc(-n2cccn2)c1)C(=O)C1COc2ccccc2C1 (stereo not given)	inactive
CC1=NOC2(CCN(C(=O)c3ccc(C(F)(F)F)cc3)CC2)C1	inactive
CCOC(=O)c1cc(-c2ccc(OC)cc2)n(CCC(=O)Nc2cccc(C)c2C)c1C	inconclusive: 10 µM [inhibitor, single point]
O=C(O)COc1ccc(-c2nccc3c2C(=O)N(Cc2cccc(C(F)(F)F)c2)CC(CNC(=O)c2cccc(Cl)c2)O3)cc1 (stereo not given)	active: 10 µM
O=C(Cc1ccc2c(c1)OCO2)N1CCc2[nH]nc(-c3ccccc3F)c2C1	inactive
COc1ccc(CCc2nnc3n2CCCC3)cc1	inactive
Cc1ccsc1CN1CCCC(c2nc(CCOCC3CCOCC3)no2)C1 (stereo not given)	inconclusive: 3.98 µM [inhibitor, single point]
COc1ccccc1N1CCN(C(=O)Nc2n[nH]c(Cc3ccccc3)n2)CC1	inconclusive: 20 µM [inhibitor, single point]
COc1cc2c(cc1OCc1ccccc1)N(C(=O)c1ccncc1)CC21CCN(C)CC1	inconclusive: 20 µM [inhibitor, single point]
CCOc1ccccc1CN1CCCCC12Cc1ccccc1CNC2=O (stereo not given)	inconclusive: 7.08 µM [inhibitor, partial curve, poor fit]
O=C(CCC[C@H]1NC[C@@H]2C[C@H]1CN(Cc1ccccc1)C2)NCc1cc(F)cc(F)c1	inconclusive: 12.6 µM [inhibitor, partial curve, poor fit]
CCCc1noc(-c2cccn3c(CNC(=O)c4ccc(Cl)cc4)nnc23)n1	inconclusive: 0.891 µM [inhibitor, partial curve]
Cc1nc(C)c(C(=O)N2CCCN(S(C)(=O)=O)C(c3ccccc3)CC(=O)NCC2)s1 (stereo not given)	inactive
COc1ccc(CN2CCC[C@H]2c2nc(-c3ccc(-n4ccnc4)nc3)no2)c(OC)c1OC	active: 10 µM
Cc1noc([C@@H]2CN(Cc3c(C)n[nH]c3C)C[C@H]2CO)n1	inactive
COc1ccccc1-c1[nH]nc2ncc(C(=O)N3CCC(c4ccccc4)CC3)nc12	active: 14.1 µM
Cc1ccc(O)c(CN2CCCC(c3nc(CC(C)C)no3)C2)c1 (stereo not given)	inconclusive: 1.58 µM [inhibitor, full curve, poor fit]
COc1ccccc1CCNC(=O)C1CC(c2ccc(F)c(C)c2)CN(C(=O)C2CC2)C1 (stereo not given)	inactive
CC(C)CN(CC(C)C)C[C@H]1O[C@H](Cc2cc(COc3ccccc3)on2)CC[C@@H]1O	inconclusive: 22.4 µM [inhibitor, partial curve, poor fit]
COCCCNC(=O)c1cnc2c(c1)N(C(=O)Cc1ccc(C(C)C)cc1)CCC2	inactive

SMILES	Potency
CN1CCN(C(=O)CSCc2ccccc2Cl)[C@H]2CS(=O)(=O)C[C@H]21	inactive
O=C(c1ccc(F)c(F)c1)N1CCN(C2CCN(CCc3ccccc3)C2=O)CC1 (stereo not given)	inconclusive: 8.91 µM [inhibitor, single point]
CCc1nc2c(c(-c3ccc(Cl)cc3)n1)CCN(CC1CCCCC1)CC2	inconclusive: 1.78 µM [inhibitor, full curve, poor fit]
CC#CCn1cc2c3c(cccc31)[C@H](CC(C)C)N[C@H](C(=O)NCCC)C2	inconclusive: 14.1 µM [inhibitor, partial curve, poor fit]
O=C(Nc1ccc(=O)n2c1[C@@H]1C[C@@H](CN(C(=O)Nc3ccc(F)cc3)C1)C2)c1ccc2c(c1)OCO2	inconclusive: 0.501 µM [inhibitor, partial curve, poor fit]
COc1ccc(N(CC(=O)NCCc2ccc(C)cc2)S(=O)(=O)c2c(C)nn(C)c2C)cc1	inactive
O=C(N[C@H]1CCN2C(=O)N(c3ccc(OC(F)(F)F)cc3)C(=O)[C@@H]2C1)c1cnccn1	inactive
COc1ccc(S(=O)(=O)NCCc2nnc3ccc(SCC(=O)Nc4ccccc4C)nn23)cc1	inactive
O=C(c1ccc(C(F)(F)F)cc1)N1CCC2(CC1)C(=O)Nc1ccccc12	inactive
COC(=O)C1=C(C)N=C2SC=C(CC(=O)Nc3cc(C)cc(C)c3)N2C1c1ccccc1OC (stereo not given)	active: 7.08 µM
O=C(Cc1ccccc1)N1CCC2(CC1)CN(Cc1ccccc1)CC2CO (stereo not given)	inconclusive: 10 µM [inhibitor, single point]
COc1cccc(NC(=O)c2ccc(N3CC4CC(C3)[C@H]3CCCC(=O)N3C4)nc2)c1 (stereo not given in full)	inactive
O=C(c1ccc(Cl)cc1)N1CC2(CCCN(Cc3ccc(Cl)cc3)C2)Cc2ccccc21 (stereo not given)	inconclusive: 10 µM [inhibitor, single point]
CNC(=O)[C@@H]1C[C@H](n2cc(CN(C)C(=O)NCC3CCCCC3)nn2)CN1	inconclusive: 0.141 µM [inhibitor, full curve, poor fit]
Cc1noc(C)c1-c1cc2c(c(-c3ccc(CO)cc3)c1)C(=O)N(C)C2	inconclusive: 31.6 µM [inhibitor, single point]
COc1cc(-c2onc(C)c2C(=O)NCCC(c2ccccc2)c2ccccc2)cc(OC)c1OC	active: 11.2 µM
O=C(Nc1cccc(C(F)(F)F)c1)c1ccc2c(c1)nnn2C1CCCC1	inconclusive: 17.8 µM [inhibitor, single point]
O=C(c1ccccc1F)N1CCCCCC1c1nnc(-c2ccccc2)o1 (stereo not given)	inconclusive: 0.199 µM [inhibitor, full curve, poor fit]
O=c1[nH]c(N2CCOCC2)nc2c1CCN(Cc1cc(Br)ccc1F)CC2	inconclusive: 0.316 µM [inhibitor, full curve, poor fit]
COc1ccc(C2Cn3nnc(-c4noc(CCc5cccc(OC)c5)n4)c3CO2)cc1 (stereo not given)	inactive
CCCCn1c(=N)n(CCCOc2ccc(F)cc2)c2ccccc21	inconclusive: 10 µM [inhibitor, partial curve, poor fit]
COCCc1noc([C@@H]2CN(C3CCCCC3)C[C@H]2CO)n1	inactive
O=C(NC1CC(=O)N(Cc2ccccc2C(F)(F)F)C1)c1cscn1 (stereo not given)	inactive
COc1cc2c(cc1OC)CN(C(=O)Nc1ccccc1)CC2	inactive

SMILES	Potency
CC(C)(C)c1ccc(-c2cc(C[C@H]3CNCC[C@H]3CC(=O)Nc3ccccc3)no2)cc1	inactive
CN1C(=O)[C@@H]2C[C@@H](CN2Cc2ccc3c(c2)OCO3)Oc2ccccc21	inconclusive: 10 µM [inhibitor, single point]
COC[C@@H]1[C@H](C(=O)Nc2ccc(F)cc2F)CCC(=O)N1C	inactive
COc1ccc(-c2nc3sc(CCNC(=O)c4ccco4)c(C)n3n2)cc1	inconclusive: 17.8 µM [inhibitor, single point]
Cc1ccsc1CN1CCC(C2CCN(S(C)(=O)=O)CC2)C1 (stereo not given)	inconclusive: 11.2 µM [inhibitor, single point]
Cn1cc(CN(C(=O)Nc2ccccc2)C2CCCCC2)c2ccccc21	active: 3.16 µM
COc1ccc(OCC(=O)N2CCCC(CNC(=O)c3ccc(F)cc3)C2)cc1 (stereo not given)	inactive
O=C(NCc1cccnc1)[C@H]1C[C@@H](O)[C@H](O)[C@@H]2N=C(Nc3ccc(Cl)cc3)S[C@@H]21	inactive
CC(C)NC(=O)c1ccc(Cn2c(SCC(N)=O)nc3ccccc3c2=O)cc1	inactive
C=CCNC(=O)N[C@H]1[C@H](O)[C@@H](Oc2ccccc2)[C@@H]2OC[C@H]1O2	inactive
Cc1nc(C2CCCCN2C(=O)Cc2ccccc2)n[nH]1 (stereo not given)	inactive
CCOc1ccc(C2CC(=O)Nc3nc(SCc4ccccc4C)[nH]c(=O)c32)cc1OC (stereo not given)	inconclusive: 8.91 µM [inhibitor, partial curve, poor fit]
O=C1OC[C@@H]2CCN(C3CCCC3)Cc3ccc(F)cc3N12	inconclusive: 2.24 µM [inhibitor, full curve, poor fit]
CCOc1ccc2c(n1)CCN(C(=O)Nc1ccc(C)c(C)c1)C2	inconclusive: 8.91 µM [inhibitor, partial curve]
CN1CCCCCC(O)c2cc(C(=O)NCCc3ccncc3)ccc21 (stereo not given)	inconclusive: 15.8 µM [inhibitor, partial curve, poor fit]
O=C1c2c(nc(CNc3cccnc3)n2Cc2ccccc2)NCCN1Cc1ccccc1	inconclusive: 10 µM [inhibitor, partial curve, poor fit]
Cc1ncc(CO)c2c1Oc1nc(-c3ccccc3Cl)nc(SCc3ccccc3F)c1C2	active: 4.47 µM
CC(NC(=O)Cc1cccn1-c1cccc(Cl)c1)c1cccnc1 (stereo not given)	inactive
Oc1ccc(Nc2ccnc(N3CC4CCC(C3)N4CC(F)(F)F)n2)cc1	inconclusive: 7.94 µM [inhibitor, single point]
CN(Cc1ccc(F)cc1)c1ccc2ncc(Nc3cccc(N[S+](C)(=O)[O-])c3)n2n1	inconclusive: 3.98 µM [inhibitor, single point]
O=C(Nc1ccccc1)N1CCC(N(C(=O)C2CC2)C2CCOCC2)CC1	inconclusive: 6.31 µM [inhibitor, partial curve, poor fit]
O=C(NCc1ccc(F)cc1)c1cc2c(s1)CCN(C(=O)c1ccc(F)cc1)C2	inconclusive: 11.2 µM [inhibitor, partial curve, poor fit]
